Measured values from the supplement of paper PMC3334620.
The full ranking holds about 33,000 sequences; the median of “E-score (-0.5 to 0.5)” is about -0.054, and the highest 2% start at about 0.35. The list shows a part of the results.

target: T1, Stb5 (UniProt P38699); experiment: PBM E-score (8-mer binding enrichment) (E-score (-0.5 to 0.5)); higher = stronger / more preferred TF binding; most listed sequences are background and not binding sites; details: protein concentration: 200 nM; construct: GST-full length
T1 sequence: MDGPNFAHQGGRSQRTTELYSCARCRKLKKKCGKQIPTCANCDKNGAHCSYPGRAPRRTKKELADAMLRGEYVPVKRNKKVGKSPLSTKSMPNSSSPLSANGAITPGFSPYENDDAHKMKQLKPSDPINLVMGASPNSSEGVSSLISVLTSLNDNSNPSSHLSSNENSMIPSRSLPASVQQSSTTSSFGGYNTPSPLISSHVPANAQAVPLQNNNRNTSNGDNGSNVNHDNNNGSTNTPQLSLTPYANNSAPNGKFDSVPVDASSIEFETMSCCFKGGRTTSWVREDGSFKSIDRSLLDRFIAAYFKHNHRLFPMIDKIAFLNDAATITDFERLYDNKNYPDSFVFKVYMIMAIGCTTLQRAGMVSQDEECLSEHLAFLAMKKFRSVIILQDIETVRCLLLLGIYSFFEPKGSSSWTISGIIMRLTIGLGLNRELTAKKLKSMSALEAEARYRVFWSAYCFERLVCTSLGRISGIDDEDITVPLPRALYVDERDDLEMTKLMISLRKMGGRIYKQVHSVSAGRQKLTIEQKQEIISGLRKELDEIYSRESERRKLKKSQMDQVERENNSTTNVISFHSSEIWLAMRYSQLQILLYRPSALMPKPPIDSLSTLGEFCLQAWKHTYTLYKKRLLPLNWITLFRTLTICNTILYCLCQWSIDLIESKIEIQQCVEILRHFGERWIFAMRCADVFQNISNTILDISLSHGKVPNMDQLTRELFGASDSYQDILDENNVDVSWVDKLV
How it was run: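 Full-length yeast transcription factors or their DNA-binding domains, GST-tagged and expressed with PURExpress, were applied at about 100-200 nM to universal all-10-mer Agilent arrays. These arrays had been made double-stranded by primer extension on fresh or once-stripped slides. Detection used fluorescent anti-GST, normalisation used masliner, and E-scores for ungapped eight-base words pooled with reverse complements came from the Universal PBM Analysis Suite.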

| Sequence | PBM E-score |
| --- | --- |
| AGAGTCTG | -0.282 |
| ACGCTCGC | -0.078 |
| GGAGCTAC | 0.172 |
| CATATGAA | -0.00067 |
| GAGATCTA | -0.158 |
| GTACTCGA | -0.163 |
| TGTTACAA | -0.106 |
| CGGAGAAC | 0.0279 |
| CAGGGAAG | -0.227 |
| TACGCTCA | -0.279 |
| GTGATAAA | 0.184 |
| GCGTCCAA | -0.222 |
| CTTCAATA | -0.149 |
| TGGCGAAA | -0.0111 |
| TAGCACAA | -0.151 |
| GTACAGTA | -0.0118 |
| AACAGTGA | -0.0602 |
| CAGAAAGG | -0.0805 |
| TTACGCAA | -0.137 |
| AGTCACAG | -0.269 |
| CCCCCGCA | 0.154 |
| AACGCATA | -0.0153 |
| CTGTGTTC | -0.133 |
| TCCGAAGA | 0.3 |

| Sequence | PBM E-score |
| --- | --- |
| CAATACCC | 0.242 |
| ACCGACGG | 0.42 |
| CGCAATAG | -0.15 |
| CGATGGCA | 0.0451 |
| CAGGGTCC | -0.152 |
| ACGATGTA | -0.168 |
| CAGATTAC | 0.0255 |
| CGATGATA | 0.151 |
| CATAGCTC | -0.0792 |
| CGAGCGTA | 0.115 |
| ACAGTGGA | -0.0661 |
| AAAGATCG | -0.0774 |
| CGTCTCAG | -0.114 |
| ACCTCTCC | -0.0916 |
| CTTAATAC | -0.0621 |
| AACTCGAG | -0.178 |
| GAAGGGAA | -0.118 |
| GAATTTGA | 0.125 |
| TAAGACTA | -0.238 |
| GAGAATCC | 0.0729 |
| CAAACTTA | -0.0322 |
| ATTTTGGG | -0.156 |
| CACATACA | -0.251 |
| GCTCTGCA | -0.326 |

| Sequence | PBM E-score |
| --- | --- |
| AAGCTTAA | -0.0031 |
| CACCACGG | 0.124 |
| AACTACCA | -0.153 |
| GGTCGTCA | -0.0466 |
| CTAAACCC | 0.233 |
| CCAGTTTC | -0.207 |
| TTCTCAAA | -0.128 |
| CACCCAGG | -0.0359 |
| TCCAAGAA | -0.203 |
| AAGCTAAG | -0.205 |
| CCACGGAG | 0.289 |
| AGCACTTA | -0.0929 |
| ATTAGGTC | 0.0516 |
| ACCGCCGG | 0.414 |
| GAATTAAA | -0.0528 |
| TAGTACTA | -0.346 |
| GTTGTTCA | -0.0698 |
| CTACGTTA | 0.0142 |
| GGTCTCAA | 0.18 |
| ATTATTAG | -0.0442 |
| CCCAACAA | 0.0103 |
| AGCATGCT | -0.405 |
| CGACACAG | 0.247 |
| CCTAAACC | 0.138 |

| Sequence | PBM E-score |
| --- | --- |
| CTAGATCC | 0.141 |
| ACGGTGAA | 0.316 |
| GTCGTCAC | -0.0104 |
| GCCTGTGA | -0.117 |
| ATGTTGCC | 0.153 |
| GCGTTCAC | 0.0264 |
| CAAGCCTG | -0.314 |
| ACTACAGT | -0.24 |
| TCATGTAA | 0.0075 |
| AAATGCGT | 0.08 |
| AGCGGCCC | 0.255 |
| CATAGACA | -0.112 |
| ATTTGTAC | -0.154 |
| GAGTCTGA | -0.308 |
| CATTCCTC | -0.0908 |
| GACCCTTA | -0.174 |
| GAAACCTA | -0.123 |
| AAGATTAA | -0.0554 |
| AAGCTACA | -0.214 |
| ATGCTTAA | 0.0568 |
| CATCACGC | 0.0618 |
| CTGGTATA | -0.0956 |
